A collection of fitness landscapes (doi:10.1126/science.1257360)
This is one part of the list.

B1: PhoQ; a variant is named by its letters at X, in order, P23837 (parent)
chain: MKKLLRLFFPLSLRVRFLLATAAVVLVLSLAYGMVALIGYSVSFDKTTFRLLRGESNLFYTLAKWENNKLHVELPENIDKQSPTMTLIYDENGQLLWAQRDVPWLMKMIQPDWLKSNGFHEIEADVNDTSLLLSGDHSIQQQLQEVREDDDDAEMTHSVAVNVYPATSRMPKLTIVVVDTIPVELKSSYMVWSWFIYVLSANLLLVIPLLWVAAWWSLRPIEALAKEVRELEEHNRELLNPATTRELTSLVRNLNRLLKSERERYDKYRTTLTDLTHSLKTPLXXLQXXLRSLRSEKMSVSDAEPVMLEQISRISQQIGYYLHRASMRGGTLLSRELHPVAPLLDNLTSALNKVYQRKGVNISLDISPEISFVGEQNDFVEVMGNVLDNACKYCLEFVEISARQTDEHLYIVVEDDGPGIPLSKREVIFDRGQRVDTLRPGQGVGLAVAREITEQYEGKIVAGESMLGGARMEVIFGRQHSAPKDE

Variants of: B1
Experiment: enrichment ratio after two sorts for PhoP signalling (ratio (wild type AVST 3.29)); higher = more functional
Conditions: with PhoP (E. coli)

Variant	enrichment ratio
APSA	≤ 0.25
NGYS	≤ 0.25
PIEK	≤ 0.25
WCHK	≤ 0.25
HAHR	≤ 0.25
YIWQ	≤ 0.25
RYFH	≤ 0.25
IQGS	≤ 0.25
GGFK	≤ 0.25
YRKM	≤ 0.25
YRPA	≤ 0.25
SFVS	≤ 0.25
LADV	≤ 0.25
NHEK	≤ 0.25
KYAM	≤ 0.25
HSQA	≤ 0.25
LPSF	≤ 0.25
KHAK	≤ 0.25
SYRI	≤ 0.25
ICFA	≤ 0.25
VACP	≤ 0.25
VMFG	≤ 0.25
FLSC	≤ 0.25
HQFR	≤ 0.25
KSYW	≤ 0.25
QSVI	≤ 0.25

Variant	enrichment ratio
KPAC	≤ 0.25
TYDM	≤ 0.25
WPHC	≤ 0.25
EQTH	≤ 0.25
RIEW	≤ 0.25
SMCG	5.57
TTWV	1.9
NGDL	≤ 0.25
IHIQ	≤ 0.25
EQVQ	≤ 0.25
MVTT	≤ 0.25
YLYR	≤ 0.25
GMIH	≤ 0.25
FIKY	≤ 0.25
WRAP	≤ 0.25
GAPF	0.621
WTWK	≤ 0.25
RWMS	≤ 0.25
GTPC	≤ 0.25
MADM	≤ 0.25
GEAK	≤ 0.25
WLHR	≤ 0.25
SPPC	≤ 0.25
WSDM	≤ 0.25
HQWR	≤ 0.25
NTDI	≤ 0.25

Variant	enrichment ratio
NPLC	≤ 0.25
NDFH	≤ 0.25
TEMN	0.333
MRHK	≤ 0.25
YQVK	≤ 0.25
SDWK	≤ 0.25
WHAP	≤ 0.25
TKWC	≤ 0.25
YLHI	≤ 0.25
RDPP	≤ 0.25
LHDH	≤ 0.25
FFFG	≤ 0.25
NMHV	≤ 0.25
DTAL	≤ 0.25
SDDR	≤ 0.25
ELPI	≤ 0.25
PWKV	≤ 0.25
SMMP	≤ 0.25
MAYP	≤ 0.25
LNTM	≤ 0.25
DGNL	≤ 0.25
AFRF	≤ 0.25
MFQH	≤ 0.25
WFHG	≤ 0.25
DCYK	≤ 0.25
KTHH	≤ 0.25

Variant	enrichment ratio
EDNG	≤ 0.25
PAKV	≤ 0.25
ACRF	7.81
TVWD	≤ 0.25
KAAH	≤ 0.25
TMDA	≤ 0.25
DKAM	≤ 0.25
YQWK	≤ 0.25
GQCW	≤ 0.25
YLGG	≤ 0.25
NERV	≤ 0.25
SALN	11.9
FQIQ	≤ 0.25
HVKF	≤ 0.25
HTYR	≤ 0.25
FNLV	2.75
AHER	≤ 0.25
VNGM	7.04
QMQN	≤ 0.25
QGGL	7.49
FFIM	≤ 0.25
QNFV	≤ 0.25
SVMA	7.62
FHHT	≤ 0.25
YNVF	≤ 0.25
DAMQ	≤ 0.25

Variant	enrichment ratio
YFGH	≤ 0.25
MYFT	≤ 0.25
QRNH	≤ 0.25
MVNS	≤ 0.25
DSTV	≤ 0.25
PSWS	≤ 0.25
RLYG	≤ 0.25
YQIA	≤ 0.25
SWTV	≤ 0.25
THCC	3.84
TVCA	14.5
KCYW	≤ 0.25
HAPQ	≤ 0.25
YRCV	≤ 0.25
RHDA	≤ 0.25
GSEW	≤ 0.25
SEKW	≤ 0.25
HWWH	≤ 0.25
RWHK	≤ 0.25
GRWH	≤ 0.25
AIAK	≤ 0.25
DDMF	≤ 0.25
LMQE	≤ 0.25
NNGE	≤ 0.25
LNVR	≤ 0.25
QRSF	≤ 0.25

Variant	enrichment ratio
SCAD	≤ 0.25
ASVV	14.5
HVLT	≤ 0.25
PTLQ	≤ 0.25
WSSV	≤ 0.25
TKYP	≤ 0.25
TKQI	17.5
VWNR	≤ 0.25
AMAN	0.326
SFVV	≤ 0.25
LGRK	≤ 0.25
TPLY	≤ 0.25
GCTG	9.76
MIYS	5.12
LQTE	≤ 0.25
PHWP	≤ 0.25
HLAV	≤ 0.25
YRAE	≤ 0.25
NHCK	≤ 0.25
YTLS	4.88
NEYK	≤ 0.25
VFTF	≤ 0.25
LACI	≤ 0.25
